Data taken from a collection of fitness landscapes (doi:10.1038/s41467-024-54723-y).
Over roughly 18,000 sequences, “TetR repression strength (sort-seq, GFP reporter)” has its median near 0.23; the highest 2% begin near 0.68. The list shows a part of the results.

What follows are sequences tested against TetR (class B, Tn10) (UniProt P04483) (assay: TetR repression strength (sort-seq, GFP reporter) (relative to tetO2 = 1); higher = stronger repression). Details: E. coli.
UniProt P04483, sequence (P04483 whole entry): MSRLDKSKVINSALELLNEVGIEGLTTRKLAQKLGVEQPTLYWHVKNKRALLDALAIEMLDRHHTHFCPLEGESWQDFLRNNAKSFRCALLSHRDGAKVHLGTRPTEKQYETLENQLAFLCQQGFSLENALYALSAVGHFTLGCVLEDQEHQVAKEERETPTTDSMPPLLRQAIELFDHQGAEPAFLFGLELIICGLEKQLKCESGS
Outline: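 E. coli SIG10-MAX carried a low-copy plasmid library with eight randomized operator positions between a constitutive promoter and sfGFP, with TetR constitutively expressed. Cells grew 5 h at 37 °C in LB with 50 µg/mL chloramphenicol, then 10^6 cells were FACS-sorted into 13 fluorescence bins, each Illumina-sequenced. Repression strength is the top bin index plus one minus the read-weighted mean bin, divided by the wild-type operator value. Three independent transformations; variants with ≥30 reads in all replicates and CV ≤0.5 were averaged.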
Sequence TCCCACATAGTGGTGGAGA has a TetR repression strength of 0.381.
TCCCGCATAGTGGCGGAGA gave a TetR repression strength of 0.19.
Work on TCCCAACGAGTGGGAGAGA yielded a TetR repression strength of 0.217.
TCCCATGCAGTAGACGAGA showed a TetR repression strength of 0.205.
Sequence TCCCGGGAAGTGCATGAGA has a TetR repression strength of 0.167.
Work on TCCCTGCCAGTTGTAGAGA yielded a TetR repression strength of 0.319.
TCCCACGCAGTGGCTGAGA was tested, and the TetR repression strength was 0.106.
In the case of TCCCCTCGAGTGGTAGAGA, the TetR repression strength is reported as 0.191.
For TCCCACCTAGTGATAGAGA, the TetR repression strength was 0.487.
TCCCGGGGAGTCATTGAGA showed a TetR repression strength of 0.395.
TCCCAGCGAGTGCAAGAGA showed a TetR repression strength of 0.364.
With TCCCTCCCAGTGGAAGAGA the TetR repression strength was 0.491.
With TCCCCACGAGTATAGGAGA the TetR repression strength was 0.0143.
TCCCGAAGAGTTCACGAGA showed a TetR repression strength of 0.33.
TCCCTCCCAGTTCTTGAGA was tested, and the TetR repression strength was 0.466.
Work on TCCCCAAGAGTTGGGGAGA yielded a TetR repression strength of 0.0324.
TCCCGATCAGTGCAGGAGA showed a TetR repression strength of 0.299.
TCCCGGACAGTTAATGAGA was tested, and the TetR repression strength was 0.158.
Work on TCCCACGAAGTGCCAGAGA yielded a TetR repression strength of 0.186.
Sequence TCCCACTAAGTGCGCGAGA has a TetR repression strength of 0.204.
With TCCCACAGAGTCGGTGAGA the TetR repression strength was 0.165.
Work on TCCCTTAGAGTCCAGGAGA yielded a TetR repression strength of 0.215.
TCCCGGCTAGTAGTAGAGA showed a TetR repression strength of 0.293.
For TCCCGGGAAGTATGAGAGA, the TetR repression strength was 0.278.
With TCCCACGCAGTGCTGGAGA the TetR repression strength was 0.175.
Sequence TCCCAATTAGTGGTCGAGA has a TetR repression strength of 0.32.
For TCCCGGGTAGTCGTAGAGA, the TetR repression strength was 0.501.
For TCCCGCACAGTGGCCGAGA, the TetR repression strength was 0.526.
Work on TCCCAAAGAGTCAGTGAGA yielded a TetR repression strength of 0.261.
In the case of TCCCAATTAGTATGTGAGA, the TetR repression strength is reported as 0.0876.
TCCCACCCAGTCAGGGAGA gave a TetR repression strength of 0.302.
TCCCGGTGAGTGAGCGAGA showed a TetR repression strength of 0.346.
TCCCAAAAAGTGTACGAGA showed a TetR repression strength of 0.248.
For TCCCAATTAGTGACAGAGA, the TetR repression strength was 0.512.
TCCCGTTAAGTCGCCGAGA showed a TetR repression strength of 0.0862.
TCCCGAGTAGTCACCGAGA gave a TetR repression strength of 0.195.
Sequence TCCCGGGTAGTCTGTGAGA has a TetR repression strength of 0.26.
In the case of TCCCCAAGAGTAGGGGAGA, the TetR repression strength is reported as 0.144.
TCCCGAGAAGTAGGCGAGA was tested, and the TetR repression strength was 0.101.
With TCCCCAGAAGTGGTTGAGA the TetR repression strength was 0.399.
TCCCGGTTAGTATTTGAGA was tested, and the TetR repression strength was 0.184.
For TCCCATAGAGTCTGGGAGA, the TetR repression strength was 0.199.
TCCCGGGAAGTACAGGAGA was tested, and the TetR repression strength was 0.286.
Work on TCCCCCTGAGTATTCGAGA yielded a TetR repression strength of 0.332.
Sequence TCCCGGCGAGTGGCGGAGA has a TetR repression strength of 0.322.
Work on TCCCTGTGAGTGCGTGAGA yielded a TetR repression strength of 0.35.
TCCCGCCTAGTCGTGGAGA showed a TetR repression strength of 0.466.
For TCCCGGGCAGTTGTTGAGA, the TetR repression strength was 0.115.
For TCCCGTGCAGTGGGAGAGA, the TetR repression strength was 0.177.
TCCCGCACAGTAGAGGAGA was tested, and the TetR repression strength was 0.232.
Work on TCCCCAACAGTTGGCGAGA yielded a TetR repression strength of 0.343.
Sequence TCCCTTCGAGTGCATGAGA has a TetR repression strength of 0.26.
In the case of TCCCAATGAGTGATTGAGA, the TetR repression strength is reported as 0.662.
With TCCCAAGAAGTAGGTGAGA the TetR repression strength was 0.23.
In the case of TCCCGGGTAGTCATGGAGA, the TetR repression strength is reported as 0.275.
For TCCCTGGCAGTAAGTGAGA, the TetR repression strength was 0.339.
TCCCCGGCAGTCTTTGAGA gave a TetR repression strength of 0.297.
For TCCCTTGAAGTCATCGAGA, the TetR repression strength was 0.131.
In the case of TCCCGATCAGTAGGGGAGA, the TetR repression strength is reported as 0.171.
In the case of TCCCTCGCAGTGGGGGAGA, the TetR repression strength is reported as 0.2.
Sequence TCCCTAACAGTTGAGGAGA has a TetR repression strength of 0.254.
Sequence TCCCGAGGAGTCTTGGAGA has a TetR repression strength of 0.203.
With TCCCTTCTAGTTTACGAGA the TetR repression strength was 0.46.
With TCCCGCCCAGTTACTGAGA the TetR repression strength was 0.272.
TCCCCGGCAGTTTTTGAGA was tested, and the TetR repression strength was 0.3.
In the case of TCCCAAGAAGTCGTAGAGA, the TetR repression strength is reported as 0.265.
With TCCCAGGTAGTGATTGAGA the TetR repression strength was 0.139.
TCCCTTTCAGTGACAGAGA was tested, and the TetR repression strength was 0.578.
Work on TCCCCATAAGTACTAGAGA yielded a TetR repression strength of 0.346.
TCCCGAGAAGTATCGGAGA was tested, and the TetR repression strength was 0.145.
TCCCCGTCAGTGTGCGAGA was tested, and the TetR repression strength was 0.333.
TCCCCTCGAGTGTGTGAGA was tested, and the TetR repression strength was 0.125.
Sequence TCCCTGCGAGTATAGGAGA has a TetR repression strength of 0.249.
Work on TCCCCGTAAGTCCCTGAGA yielded a TetR repression strength of 0.401.
Work on TCCCCATGAGTTCTTGAGA yielded a TetR repression strength of 0.207.
For TCCCGCCAAGTCAGAGAGA, the TetR repression strength was 0.2.
TCCCGCGGAGTACGCGAGA showed a TetR repression strength of 0.188.
TCCCTTTCAGTATTAGAGA gave a TetR repression strength of 0.518.
With TCCCAGAGAGTTATCGAGA the TetR repression strength was 0.285.
Work on TCCCGGGCAGTGGACGAGA yielded a TetR repression strength of 0.259.
For TCCCGGAGAGTGACGGAGA, the TetR repression strength was 0.356.
In the case of TCCCTTAGAGTGGTAGAGA, the TetR repression strength is reported as 0.695.
For TCCCTGCAAGTCGGAGAGA, the TetR repression strength was 0.268.
For TCCCTTAAAGTACACGAGA, the TetR repression strength was 0.377.
Sequence TCCCCGAAAGTGTGGGAGA has a TetR repression strength of 0.138.
TCCCGCAAAGTTCACGAGA showed a TetR repression strength of 0.198.
Sequence TCCCAATCAGTAATGGAGA has a TetR repression strength of 0.363.
In the case of TCCCTATTAGTGGACGAGA, the TetR repression strength is reported as 0.263.
In the case of TCCCCTTGAGTGTGGGAGA, the TetR repression strength is reported as 0.161.
TCCCATATAGTGGGTGAGA gave a TetR repression strength of 0.0558.
TCCCATCAAGTGTACGAGA showed a TetR repression strength of 0.28.
TCCCCAACAGTCGCGGAGA gave a TetR repression strength of 0.104.
TCCCATTGAGTTTTAGAGA gave a TetR repression strength of 0.423.
In the case of TCCCGCACAGTGTACGAGA, the TetR repression strength is reported as 0.132.
TCCCAGGCAGTCTAGGAGA was tested, and the TetR repression strength was 0.387.
In the case of TCCCGGTCAGTTATAGAGA, the TetR repression strength is reported as 0.554.
Sequence TCCCGTCCAGTTTAGGAGA has a TetR repression strength of 0.253.
TCCCGTTAAGTTTCGGAGA gave a TetR repression strength of 0.153.
TCCCCTGAAGTTATCGAGA showed a TetR repression strength of 0.396.
TCCCAAGTAGTTGGGGAGA showed a TetR repression strength of 0.476.
TCCCCTGTAGTCGCTGAGA gave a TetR repression strength of 0.0433.
TCCCCGTTAGTGGATGAGA showed a TetR repression strength of 0.171.
